Laboratory results from publication PMC9911399, “Two distinct binding modes provide the RNA-binding protein RbFox with extraordinary sequence specificity”.
Changes are numbered by the printed parent chain; changes in the protein carry UniProt numbers. Some of the results follow.

T1: RBFOX1 RRM RbFoxmut (Fox-RRM*) (Homo sapiens, UniProt Q9NWB1 109-208, R118D;E147R;N151S;E152T)
T1 sequence: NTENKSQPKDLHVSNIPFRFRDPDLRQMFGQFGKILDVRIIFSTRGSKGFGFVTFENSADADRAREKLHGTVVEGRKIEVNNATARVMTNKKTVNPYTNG

B1: GGUCUUA (DNA:RNA)
RNA: GGGAGACCGGAAUUCAGAUUGUCCGGUCUUAUUAAAUCCCGUCGUAGCCACCA
DNA 1: CAATCTGAATTCCGGTCTCCC
DNA 2: TGGTGGCTACGACGGGATT
B2: AAGUACU (DNA:RNA)
RNA: GGGAGACCGGAAUUCAGAUUGUCCAAGUACUUUAAAUCCCGUCGUAGCCACCA
DNA 1: CAATCTGAATTCCGGTCTCCC
DNA 2: TGGTGGCTACGACGGGATT
B3: UUUACGC (DNA:RNA)
RNA: B1 RNA with G25U, G26U, C28A, U29C, U30G, A31C
DNA 1: CAATCTGAATTCCGGTCTCCC
DNA 2: TGGTGGCTACGACGGGATT
B4: CCACCUG (DNA:RNA)
RNA: B1 RNA with G25C, G26C, U27A, U29C, A31G
DNA 1: CAATCTGAATTCCGGTCTCCC
DNA 2: TGGTGGCTACGACGGGATT
B5: GAGAAGA (DNA:RNA)
RNA: B2 RNA with A25G, U28A, C30G, U31A
DNA 1: CAATCTGAATTCCGGTCTCCC
DNA 2: TGGTGGCTACGACGGGATT
B6: GUGCCAA (DNA:RNA)
RNA: B1 RNA with G26U, U27G, U29C, U30A
DNA 1: CAATCTGAATTCCGGTCTCCC
DNA 2: TGGTGGCTACGACGGGATT
B7: ACGAGGC (DNA:RNA)
RNA: B2 RNA with A26C, U28A, A29G, C30G, U31C
DNA 1: CAATCTGAATTCCGGTCTCCC
DNA 2: TGGTGGCTACGACGGGATT
B8: UACCGUC (DNA:RNA)
RNA: B1 RNA with G25U, G26A, U27C, U29G, A31C
DNA 1: CAATCTGAATTCCGGTCTCCC
DNA 2: TGGTGGCTACGACGGGATT
B9: AAUUCUG (DNA:RNA)
RNA: B2 RNA with G27U, A29C, C30U, U31G
DNA 1: CAATCTGAATTCCGGTCTCCC
DNA 2: TGGTGGCTACGACGGGATT
B10: ACGUACA (DNA:RNA)
RNA: B2 RNA with A26C, U31A
DNA 1: CAATCTGAATTCCGGTCTCCC
DNA 2: TGGTGGCTACGACGGGATT
B11: GAAGUCU (DNA:RNA)
RNA: B2 RNA with A25G, G27A, U28G, A29U
DNA 1: CAATCTGAATTCCGGTCTCCC
DNA 2: TGGTGGCTACGACGGGATT
B12: AAGGUUA (DNA:RNA)
RNA: B2 RNA with U28G, A29U, C30U, U31A
DNA 1: CAATCTGAATTCCGGTCTCCC
DNA 2: TGGTGGCTACGACGGGATT
B13: CCUAUCU (DNA:RNA)
RNA: B2 RNA with A25C, A26C, G27U, U28A, A29U
DNA 1: CAATCTGAATTCCGGTCTCCC
DNA 2: TGGTGGCTACGACGGGATT
B14: AGUGCCC (DNA:RNA)
RNA: B2 RNA with A26G, G27U, U28G, A29C, U31C
DNA 1: CAATCTGAATTCCGGTCTCCC
DNA 2: TGGTGGCTACGACGGGATT
B15: AGCCAUU (DNA:RNA)
RNA: B2 RNA with A26G, G27C, U28C, C30U
DNA 1: CAATCTGAATTCCGGTCTCCC
DNA 2: TGGTGGCTACGACGGGATT
B16: UUGGGCU (DNA:RNA)
RNA: B2 RNA with A25U, A26U, U28G, A29G
DNA 1: CAATCTGAATTCCGGTCTCCC
DNA 2: TGGTGGCTACGACGGGATT
B17: ACGCUGU (DNA:RNA)
RNA: B2 RNA with A26C, U28C, A29U, C30G
DNA 1: CAATCTGAATTCCGGTCTCCC
DNA 2: TGGTGGCTACGACGGGATT
B18: UCUCCUC (DNA:RNA)
RNA: B1 RNA with G25U, G26C, U29C, A31C
DNA 1: CAATCTGAATTCCGGTCTCCC
DNA 2: TGGTGGCTACGACGGGATT
B19: CAAGGCA (DNA:RNA)
RNA: B2 RNA with A25C, G27A, U28G, A29G, U31A
DNA 1: CAATCTGAATTCCGGTCTCCC
DNA 2: TGGTGGCTACGACGGGATT
B20: UAUUUAA (DNA:RNA)
RNA: B1 RNA with G25U, G26A, C28U, U30A
DNA 1: CAATCTGAATTCCGGTCTCCC
DNA 2: TGGTGGCTACGACGGGATT
B21: AAGCGGC (DNA:RNA)
RNA: B2 RNA with U28C, A29G, C30G, U31C
DNA 1: CAATCTGAATTCCGGTCTCCC
DNA 2: TGGTGGCTACGACGGGATT
B22: UUUAUUC (DNA:RNA)
RNA: B1 RNA with G25U, G26U, C28A, A31C
DNA 1: CAATCTGAATTCCGGTCTCCC
DNA 2: TGGTGGCTACGACGGGATT
B23: ACUUGGC (DNA:RNA)
RNA: B2 RNA with A26C, G27U, A29G, C30G, U31C
DNA 1: CAATCTGAATTCCGGTCTCCC
DNA 2: TGGTGGCTACGACGGGATT
B24: CCUCGCC (DNA:RNA)
RNA: B1 RNA with G25C, G26C, U29G, U30C, A31C
DNA 1: CAATCTGAATTCCGGTCTCCC
DNA 2: TGGTGGCTACGACGGGATT
B25: CGCCGAG (DNA:RNA)
RNA: B1 RNA with G25C, U27C, U29G, U30A, A31G
DNA 1: CAATCTGAATTCCGGTCTCCC
DNA 2: TGGTGGCTACGACGGGATT
B26: CGCUGGU (DNA:RNA)
RNA: B2 RNA with A25C, A26G, G27C, A29G, C30G
DNA 1: CAATCTGAATTCCGGTCTCCC
DNA 2: TGGTGGCTACGACGGGATT
B27: GACCGGA (DNA:RNA)
RNA: B1 RNA with G26A, U27C, U29G, U30G
DNA 1: CAATCTGAATTCCGGTCTCCC
DNA 2: TGGTGGCTACGACGGGATT
B28: UCAUCAC (DNA:RNA)
RNA: B2 RNA with A25U, A26C, G27A, A29C, C30A, U31C
DNA 1: CAATCTGAATTCCGGTCTCCC
DNA 2: TGGTGGCTACGACGGGATT
B29: ACCGACC (DNA:RNA)
RNA: B2 RNA with A26C, G27C, U28G, U31C
DNA 1: CAATCTGAATTCCGGTCTCCC
DNA 2: TGGTGGCTACGACGGGATT
B30: UGUUCAC (DNA:RNA)
RNA: B1 RNA with G25U, C28U, U29C, U30A, A31C
DNA 1: CAATCTGAATTCCGGTCTCCC
DNA 2: TGGTGGCTACGACGGGATT
B31: GAAUCAA (DNA:RNA)
RNA: B2 RNA with A25G, G27A, A29C, C30A, U31A
DNA 1: CAATCTGAATTCCGGTCTCCC
DNA 2: TGGTGGCTACGACGGGATT

Each binder was assayed against T1, RBFOX1 RRM RbFoxmut (Fox-RRM*) (assay: EMSA; HiTS-Eq, 1 nM pool, 10 min; buffer printed only for the single-RNA assays: 10 mM Tris pH 7.5, 150 mM NaCl, 3.4 mM EDTA, 0.001% NP-40, 30 C). Details: tags: His6 N-terminal (pET28a); label: 5' 32P.
Method in brief: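 Relative association constants, normalised to the cognate motif, were derived by comparing read counts of each RNA species with those of the control reaction. The RNA sequenced was the free fraction, separated by 8% native PAGE after a 10 min equilibration in 50 µL of 1 nM 5′-radiolabelled RNA (7 randomized nucleotides) with increasing concentrations of purified wild-type or mutant RbFox RRM.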

Binder	binding signal
B1	0.0996 KA relative to UGCAUGU
B2	0.0868 KA relative to UGCAUGU
B3	0.122 KA relative to UGCAUGU
B4	0.107 KA relative to UGCAUGU
B5	0.109 KA relative to UGCAUGU
B6	0.0703 KA relative to UGCAUGU
B7	0.114 KA relative to UGCAUGU
B8	0.0593 KA relative to UGCAUGU
B9	0.102 KA relative to UGCAUGU
B10	0.0819 KA relative to UGCAUGU
B11	0.0472 KA relative to UGCAUGU
B12	0.118 KA relative to UGCAUGU
B13	0.102 KA relative to UGCAUGU
B14	0.0613 KA relative to UGCAUGU
B15	0.0779 KA relative to UGCAUGU
B16	0.0678 KA relative to UGCAUGU

Binder	binding signal
B17	0.107 KA relative to UGCAUGU
B18	0.0659 KA relative to UGCAUGU
B19	0.106 KA relative to UGCAUGU
B20	0.0892 KA relative to UGCAUGU
B21	0.104 KA relative to UGCAUGU
B22	0.0919 KA relative to UGCAUGU
B23	0.154 KA relative to UGCAUGU
B24	0.115 KA relative to UGCAUGU
B25	0.114 KA relative to UGCAUGU
B26	0.128 KA relative to UGCAUGU
B27	0.0775 KA relative to UGCAUGU
B28	0.0874 KA relative to UGCAUGU
B29	0.0659 KA relative to UGCAUGU
B30	0.0944 KA relative to UGCAUGU
B31	0.259 KA relative to UGCAUGU
